# Measured values as given in a collection of fitness landscapes (doi:10.1016/j.celrep.2020.107928).
# In all, about 81,000 sequences were measured (“one-hybrid fitness for binding parS DNA”: median about -0.17, highest 2% from about 0.51 on). The list shows a part of the results.
# B1: Caulobacter ParB omega fusion; a variant is named by its letters at X, in order, B8GW30 (parent)
# chain: MESVVVGEPGMSEGRRGLGRGLSALLGEVDAAPAQAPGEQLGGSREAPIEILQRNPDQPRRTFREEDLEDLSNSIREKGVLQPILVRPSPDTAGEYQIVAGERAWRAAQRAGLKTVPIMVRELDDLAVLEIGIIENVQRADLNVLEEALSYKVLMEKFERTQENIAQTIGKSXSHVANXMRLLXLPDEVQSYLVSGELTAXHARAIAAAADPVALAKQIIEGGLSVRETEALARKAPNLSAGKSKGGRPPRVKDTDTQALESDLSSVLGLDVSIDHRGSTGTLTITYATLEQLDDLCNRLTRGI
# Variants of: B1
# Assay: one-hybrid fitness for binding parS DNA (scaled: cognate 1, non-cognate 0); higher = stronger binding
# Conditions: with parS DNA site
# Summary of the method: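 Caulobacter ParB libraries with four specificity codons randomised were screened by bacterial one-hybrid selection in the E. coli USO strain, using a HIS3 reporter whose site lies 19 bp from the promoter. Selection ran for 48 hours at 37°C on M9 lacking histidine, with 0.1 mM IPTG and 5 mM 3-AT. Plasmids were Illumina-sequenced before and after selection, three replicate libraries were pooled, and variants with under 10 reads were dropped. Fitness is the log change in each variant's read ratio to wild type, rescaled against the cognate and non-cognate sites.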
row,Variant,one-hybrid fitness for binding parS DNA
1,VTNV,≤ 0.2
2,CRGW,≤ 0.2
3,EDLF,≤ 0.2
4,TSPE,≤ 0.2
5,PQYS,≤ 0.2
6,INYR,≤ 0.2
7,ILLN,≤ 0.2
8,YPYA,≤ 0.2
9,KVDT,≤ 0.2
10,QCTQ,≤ 0.2
11,QHCK,≤ 0.2
12,RPVT,≤ 0.2
13,DFTR,≤ 0.2
14,RNHE,≤ 0.2
15,SSIG,≤ 0.2
16,WQMS,≤ 0.2
17,YMFS,≤ 0.2
18,QDYG,≤ 0.2
19,CNVT,≤ 0.2
20,ETYY,≤ 0.2
21,PWLC,≤ 0.2
22,KENH,≤ 0.2
23,CKHR,≤ 0.2
24,SCWE,≤ 0.2

row,Variant,one-hybrid fitness for binding parS DNA
1,YDKV,≤ 0.2
2,QHVL,≤ 0.2
3,PASA,≤ 0.2
4,GMCN,≤ 0.2
5,PSYE,≤ 0.2
6,NAHP,≤ 0.2
7,AQLF,≤ 0.2
8,LCKG,≤ 0.2
9,AEIR,≤ 0.2
10,KMAG,≤ 0.2
11,IAHV,≤ 0.2
12,LFCC,≤ 0.2
13,KRML,≤ 0.2
14,QPDV,≤ 0.2
15,PDQG,≤ 0.2
16,ACPI,≤ 0.2
17,IQSG,≤ 0.2
18,VISN,≤ 0.2
19,CSES,≤ 0.2
20,QDTG,≤ 0.2
21,GAGV,≤ 0.2
22,PKPH,≤ 0.2
23,QANL,≤ 0.2
24,QWDL,≤ 0.2

row,Variant,one-hybrid fitness for binding parS DNA
1,YDHT,≤ 0.2
2,GILR,≤ 0.2
3,GPAS,≤ 0.2
4,DMNM,≤ 0.2
5,SHRK,≤ 0.2
6,YRKR,≤ 0.2
7,PATC,≤ 0.2
8,DFQS,≤ 0.2
9,NHNR,≤ 0.2
10,QMYG,≤ 0.2
11,VCPW,≤ 0.2
12,PVAW,≤ 0.2
13,LMMG,≤ 0.2
14,PVMF,≤ 0.2
15,QKHA,≤ 0.2
16,RRDQ,≤ 0.2
17,CTTL,≤ 0.2
18,VPYT,≤ 0.2
19,QILP,≤ 0.2
20,AGLR,≤ 0.2
21,AYRK,≤ 0.2
22,LTTA,≤ 0.2
23,YSHC,≤ 0.2
24,HWVQ,≤ 0.2

row,Variant,one-hybrid fitness for binding parS DNA
1,YQNG,≤ 0.2
2,TAVT,≤ 0.2
3,REKC,0.448
4,AISD,≤ 0.2
5,QRCA,≤ 0.2
6,QPIT,≤ 0.2
7,AKCC,≤ 0.2
8,HDAV,≤ 0.2
9,VKFR,≤ 0.2
10,HHDR,≤ 0.2
11,LDTM,≤ 0.2
12,KNNG,≤ 0.2
13,VQAC,≤ 0.2
14,MHRW,≤ 0.2
15,QQNK,≤ 0.2
16,IQRY,≤ 0.2
17,NESL,≤ 0.2
18,KADW,≤ 0.2
19,MPQG,≤ 0.2
20,YKPY,≤ 0.2
21,QPAA,≤ 0.2
22,QKYS,≤ 0.2
23,SESG,≤ 0.2
24,IPYG,≤ 0.2

row,Variant,one-hybrid fitness for binding parS DNA
1,FRMS,≤ 0.2
2,AALV,≤ 0.2
3,THLK,≤ 0.2
4,GNCR,≤ 0.2
5,EWQK,≤ 0.2
6,KLNN,≤ 0.2
7,CVAD,≤ 0.2
8,CNSG,≤ 0.2
9,QVGW,≤ 0.2
10,RQSK,≤ 0.2
11,QPPD,≤ 0.2
12,QTNH,≤ 0.2
13,WVTS,≤ 0.2
14,CANM,≤ 0.2
15,AATS,≤ 0.2
16,ITTW,≤ 0.2
17,CGVR,≤ 0.2
18,TPEN,≤ 0.2
19,EAQG,≤ 0.2
20,HSRN,≤ 0.2
21,IKKC,≤ 0.2
22,SKHR,≤ 0.2
23,KYQK,≤ 0.2
24,REMS,0.234

row,Variant,one-hybrid fitness for binding parS DNA
1,RLYY,0.497
2,PGCM,≤ 0.2
3,AKDG,≤ 0.2
4,TRDG,≤ 0.2
5,TLSD,≤ 0.2
6,IDVM,≤ 0.2
7,TPHL,≤ 0.2
8,CSTT,≤ 0.2
9,TWHK,≤ 0.2
10,TEFV,≤ 0.2
11,TCRL,≤ 0.2
12,TALQ,≤ 0.2
13,PEVK,≤ 0.2
14,IASL,≤ 0.2
15,TNAI,≤ 0.2
16,THDE,≤ 0.2
17,RFVF,≤ 0.2
18,PNTR,≤ 0.2
19,RPMH,≤ 0.2
20,GPGS,≤ 0.2
21,SWPI,≤ 0.2
22,RREK,≤ 0.2
23,PMCG,≤ 0.2
24,RGKK,≤ 0.2

row,Variant,one-hybrid fitness for binding parS DNA
1,MQAC,≤ 0.2
2,KRPQ,≤ 0.2
3,LAQS,≤ 0.2
4,TRWN,≤ 0.2
5,FLSA,≤ 0.2
6,RGPE,≤ 0.2
7,ARKL,≤ 0.2
8,TTVC,≤ 0.2
9,WWSC,≤ 0.2
10,KQNS,≤ 0.2
11,LRRP,≤ 0.2
12,YFNG,≤ 0.2
13,VKPT,≤ 0.2
14,GGLH,≤ 0.2
15,RTQM,0.352
16,GCLR,≤ 0.2
17,ANMM,≤ 0.2
18,NQSL,≤ 0.2
19,TTCT,≤ 0.2
20,FKSW,≤ 0.2
21,GRTD,≤ 0.2
22,SHFP,≤ 0.2
23,IPRV,≤ 0.2
24,TQGF,≤ 0.2

row,Variant,one-hybrid fitness for binding parS DNA
1,TLCH,≤ 0.2
2,VSGL,≤ 0.2
3,VGGP,≤ 0.2
4,HRWC,≤ 0.2
5,LPKG,≤ 0.2
6,DRKG,≤ 0.2
7,HWFG,≤ 0.2
8,CFPE,≤ 0.2
9,RQFC,0.816
10,TDEM,≤ 0.2
11,YPTS,≤ 0.2
12,ARAV,≤ 0.2
13,CSRM,≤ 0.2
14,HIWY,≤ 0.2
15,PAAK,≤ 0.2
16,WVCC,≤ 0.2
17,ATTW,≤ 0.2
18,EKTI,≤ 0.2
19,WMVV,≤ 0.2
20,QIND,≤ 0.2
21,FYAC,≤ 0.2
22,GIGT,≤ 0.2
23,PTLN,≤ 0.2
24,GVIC,≤ 0.2

row,Variant,one-hybrid fitness for binding parS DNA
1,GPTT,≤ 0.2
2,QHQS,≤ 0.2
3,LRKV,≤ 0.2
4,DQMC,≤ 0.2
5,AKYA,≤ 0.2
6,KAAQ,≤ 0.2
7,WRGA,≤ 0.2
8,CWAS,≤ 0.2
9,IWSS,≤ 0.2
10,ATVQ,≤ 0.2
11,RFSY,0.446
12,KQSW,≤ 0.2
13,NGWN,≤ 0.2
14,QQYY,≤ 0.2
15,NIRE,≤ 0.2
16,SHMG,≤ 0.2
17,LVTA,≤ 0.2
18,PDPV,≤ 0.2
19,CWIG,≤ 0.2
20,QGGT,≤ 0.2
21,WQTG,≤ 0.2
22,TLEF,≤ 0.2
23,VCFE,≤ 0.2
24,ALAM,≤ 0.2

row,Variant,one-hybrid fitness for binding parS DNA
1,SARK,≤ 0.2
2,SAFA,≤ 0.2
3,QNWD,≤ 0.2
4,GGRA,≤ 0.2
5,KGPG,≤ 0.2
6,TMIK,≤ 0.2
7,PFTQ,≤ 0.2
8,PCVC,≤ 0.2
9,VDHF,≤ 0.2
10,QRQH,≤ 0.2
11,SGSL,≤ 0.2
12,HRHK,≤ 0.2
13,CTQG,≤ 0.2
14,FGKF,≤ 0.2
15,NQLE,≤ 0.2
16,NCPF,≤ 0.2
17,MWEC,≤ 0.2
18,VRRW,≤ 0.2
19,PAFT,≤ 0.2
20,NGRD,≤ 0.2
21,LNVR,≤ 0.2
22,QDNF,≤ 0.2
23,NGNR,≤ 0.2
24,HHTP,≤ 0.2

row,Variant,one-hybrid fitness for binding parS DNA
1,SNFT,≤ 0.2
2,PEAW,≤ 0.2
3,MCLL,≤ 0.2
4,YSTY,≤ 0.2
5,PIPI,≤ 0.2
6,VWNS,≤ 0.2
7,AHNS,≤ 0.2
8,LHCG,≤ 0.2
9,LSVI,≤ 0.2
10,KESF,≤ 0.2
11,QTGL,≤ 0.2
12,YMCS,≤ 0.2
13,TRNV,≤ 0.2
14,VRIM,≤ 0.2
15,TPGD,≤ 0.2
16,TGRF,≤ 0.2
17,SNWL,≤ 0.2
18,QYLE,≤ 0.2
19,RYAM,0.267
20,FTKR,≤ 0.2
21,RYLW,0.218
22,NTPY,≤ 0.2
23,PVVT,≤ 0.2
24,QSAE,≤ 0.2

row,Variant,one-hybrid fitness for binding parS DNA
1,PFYD,≤ 0.2
2,PDSY,≤ 0.2
3,GKVW,≤ 0.2
4,KPPL,≤ 0.2
5,CQAW,≤ 0.2
6,FIGR,≤ 0.2
7,WSAT,≤ 0.2
8,LFEY,≤ 0.2
9,SAWL,≤ 0.2
10,RTDV,≤ 0.2
11,TSDI,≤ 0.2
12,NAGP,≤ 0.2
13,HCME,≤ 0.2
14,DADN,≤ 0.2
15,GLTS,≤ 0.2
16,LVGV,≤ 0.2
17,PITY,≤ 0.2
18,QPDC,≤ 0.2
19,KRLC,≤ 0.2
20,KPVR,≤ 0.2
21,SSTS,≤ 0.2
22,YARQ,≤ 0.2
23,HKGL,≤ 0.2
24,SSDF,≤ 0.2

row,Variant,one-hybrid fitness for binding parS DNA
1,QHKC,≤ 0.2
2,SCSE,≤ 0.2
3,TRIR,≤ 0.2
4,AIVI,≤ 0.2
5,LYNR,≤ 0.2
6,TTMT,≤ 0.2
7,DESV,≤ 0.2
8,SPAC,≤ 0.2
9,YCLC,≤ 0.2
10,ATEM,≤ 0.2
11,AIWV,≤ 0.2
12,NGEY,≤ 0.2
13,RNIY,≤ 0.2
14,CTHE,≤ 0.2
15,ALKS,≤ 0.2
16,FAPI,≤ 0.2
17,EGRL,≤ 0.2
18,PDSW,≤ 0.2
